Measurements as given in the supplement of paper PMC11417369.
± gives the standard deviation of the averaged measurements. Some of the results follow.

What follows are sequences tested on PfAP2-I AP2 domain 3 (GST-tagged) (assay: gcPBM binding intensity (ln(normalized median fluorescence intensity)); higher = stronger DNA binding).
Procedure, shortened: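 For binding intensity, the highest Masliner-normalised natural-log median intensity across replicate spots of either probe orientation was taken. Protein bound to the array was stained with Alexa488 anti-GST antibody and scanned at 488 nm. The protein, GST-tagged P. falciparum DNA-binding domains from E. coli at about 25 μg on average, had been applied for 1 h to an Agilent 4 × 180k array of primer-extended double-stranded 36-bp intergenic genomic probes and negative controls.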

| Sequence | gcPBM binding intensity (ln) |
| --- | --- |
| AAAAAAAAAATATATATATATATATATATATAATTT [GTGCAC_negctrl_site32] | 8.13 ± 0.38 |
| AAGAAAAAAATTTATACAAGAATTTTTTATTATTAA [TGCATGCA_negctrl_site587] | 7.18 ± 0.69 |
| TAATTGTACGCCAATACACACAGAATTAGAATGTAG [CACACA_site102] | 8.04 ± 0.44 |
| ATAAATAAATGGTGTTGTACTCTATTATATATATAT [XGTACX_site7835] | 8.88 ± 0.11 |
| TGTTAATTAAAGGACTGTACACTAATAATTCTATAA [XGTACX_site5195] | 7.9 ± 0.26 |
| TCATATGTTTCATGTTGTACATTGAAAGTTTGGCTA [XGTACX_site3202] | 7.52 ± 0.48 |
| AAATATGTACATATTATATATATATAATATATATTG [TGCATGCA_negctrl_site438] | 7.54 ± 0.25 |
| GTTCTAATATATTGCACACGTAAAAATATAGGTAAT [CACACA_site886] | 10.3 ± 0.61 |
| AATGTATATAATATTAATATGTAAATATATAATCAA [CACACA_negctrl_site1683] | 7.68 ± 0.57 |
| TTAAAAAGTGCGTAGTGTACTAATATAAATAATACA [XGTACX_site2922] | 8.96 ± 0.27 |
| TGAATAAATATATATACACACCCATATATATATATA [CACACA_site8833] | 9.28 ± 0.42 |
| ATTATTATATATATAACACACATAATTATATACTTA [CACACA_site1563] | 7.89 ± 0.38 |
| TATACCTATAAATACACACACATATATAAATATGTA [CACACA_site6625] | 7.64 ± 0.25 |
| AAATAAAAACCATATCGTACAAAAATTTTTGTATTT [XGTACX_site7497] | 7.82 ± 0.64 |
| ATATATATATATATATGTACTTAAAAATTTGTTTTG [XGTACX_site1514] | 9.21 ± 0.085 |
| GATCACTGAATAAAGGCACACATCTGACTAATTTTT [CACACA_site66] | 8.56 ± 0.37 |
| AAGTCAATTTTTTTTTTTTTTTTTTAACTTATTAAT [TGCATGCA_negctrl_site14] | 7.29 ± 0.67 |
| TTTATTTATTATTAAAGTACTAAATCATATTATTAT [XGTACX_site992] | 7.52 ± 0.21 |
| TATACATTATCTTATGCATGCGCATCTGCATATAAA [TGCATGCA_site266] | 8.25 ± 0.61 |
| TTTTCTTTTTTCTGTTGTACTAAAAATAATTTTGTA [XGTACX_site5171] | 7.79 ± 0.39 |
| TATTTATATATTATGTGTCCACATGTAAGCTATCTT [XGTACX_site3887] | 8.01 ± 0.36 |
| CCACTAATAAATATTACACACATATATATATATATT [CACACA_site3128] | 7.88 ± 0.44 |

| Sequence | gcPBM binding intensity (ln) |
| --- | --- |
| CTCATCCTTACATACACACACATATATATATATATA [CACACA_site103] | 9.29 ± 0.33 |
| ATATTTAAATCGAAGGTGCGTATTTCCTTTTTTTTT [GTGCAC_site9632] | 9.01 ± 0.057 |
| ATTCATTTCTATTTTACACACAATAAGTAACTTAAT [CACACA_site2850] | 8.21 ± 0.38 |
| AGTATAAATAAATCATAAACATATATATATATATAT [GTGCAC_negctrl_site356] | 9.24 ± 0.31 |
| ATATATACATATAACACACACATATATATATATATA [CACACA_site2575] | 9.16 ± 0.45 |
| AAAAAAATAACAAAATGTATACAATATAACAAAAAT [GTGCAC_negctrl_site512] | 7.96 ± 0.7 |
| AACATATACCCAGGTACATGCAAATATATATATTAT [TGCATGCA_site878] | 8.05 ± 0.64 |
| ATATATATATATATGTGTACACAACAAAATAAAAAA [XGTACX_site7378] | 9.43 ± 0.48 |
| TTCTTTCTTCAAAAGTGTACCAAATGTTAGAAAGGT [XGTACX_site4353] | 8.18 ± 0.52 |
| TTTAAAAATTAATTCTGTACACATTTTTATTTTATT [XGTACX_site8] | 7.71 ± 0.39 |
| AATATATGAATTATATGTACATATAGATAAGTCACA [XGTACX_site7637] | 7.96 ± 0.48 |
| TATTATAGAAATTTAATGTTGGACAAAAAAATGAAA [CACACA_negctrl_site1351] | 7.87 ± 0.46 |
| TCTTAATATCGTTTCTCACACATATACAAACATAAA [CACACA_site5700] | 8.09 ± 0.57 |
| AAATTATTTATTTTATGTACATATTATTAAAGTTAA [XGTACX_site552] | 7.83 ± 0.26 |
| AGAGAGAAAGCTATAACATGCAACAATTTTTAGAAC [TGCATGCA_site596] | 7.82 ± 0.88 |
| ATAAATGACAAATTAACACACATATATTATAGATAT [CACACA_site7770] | 7.72 ± 0.28 |
| TAATGCATTTTCGCATGTACATATTTCTCTTTATAT [XGTACX_site8915] | 7.75 ± 0.69 |
| ATCTATATTTAATTTACACACAAAAAAAATTGTTGG [CACACA_site6582] | 7.92 ± 0.42 |
| AAAATGTGATATGTAAATATATATGTATGTATATAT [CACACA_negctrl_site1748] | 7.89 ± 0.38 |
| ATAATATTAATATGTACACACCTTAATCCTTAAAAG [CACACA_site7640] | 8.03 ± 0.35 |
| TATACCTGAATTAAAAGTACATGTATATATTTTCCC [XGTACX_site3594] | 7.6 ± 0.4 |
| ATAATTTTTTAAGTGTGTACTAAAATGTGTATTTTA [XGTACX_site6227] | 7.95 ± 0.18 |

| Sequence | gcPBM binding intensity (ln) |
| --- | --- |
| GTATTTATATGATTAACACACATATGGGTATTAATA [CACACA_site4853] | 7.63 ± 0.64 |
| TTGCATTTTCTAGTAACACACAATTAGCGTTGCTGT [CACACA_site3594] | 7.76 ± 0.42 |
| TAACAAAAAGGGAACACATGCGCTCTTTATTTATTT [TGCATGCA_site620] | 7.51 ± 0.57 |
| TATAGAAGCATTCACACACACACATACATACACATA [CACACA_site1466] | 8.03 ± 0.35 |
| ATACATATAAATAATTGTACTATTAAAAAAGAACGT [XGTACX_site3751] | 7.95 ± 0.45 |
| CTTAGAATATATGAATGTACTTTTTTTTTTAAATAA [XGTACX_site6048] | 7.29 ± 0.38 |
| ATAATATATTTTTGTAGTACACTTCTGGTAATATCG [XGTACX_site2402] | 8.07 ± 0.45 |
| AGTATACAGATATATACACACATATATATATATATA [CACACA_site4323] | 9.37 ± 0.47 |
| AAAAAAAAAAATACTCGTACATAAACCTATACATTT [XGTACX_site6494] | 7.61 ± 0.4 |
| CAATTAGCATTTTATTGTACATTTATAATCTATGAT [XGTACX_site1445] | 7.71 ± 0.55 |
| TATATATATATATGTTGTACAAAAATGTAAAATATA [XGTACX_site7761] | 9.19 ± 0.18 |
| TAAGTAACTTTTAAAAGTACCCACACATATATATAT [XGTACX_site1231] | 8.73 ± 0.38 |
| ACAAAAATAAACTATAGTACACACTTATTATTATGA [XGTACX_site5680] | 7.88 ± 0.56 |
| TCATTTTATTTTTTCACACACACATCTATATTTATA [CACACA_site7547] | 8.12 ± 0.67 |
| TTTCTTTTTTTTTTTTTTTTTTTTTTTTTTTTTTTT [TGCATGCA_negctrl_site91] | 10.3 ± 0.26 |
| TATATTTATAGGTATACACACATATGTATGTTATGT [CACACA_site7824] | 7.74 ± 0.45 |
| TTATGTATTTATATAAATATAAATATATATATATAT [CACACA_negctrl_site774] | 9.17 ± 0.42 |
| TTTCCCTTGTTGTAAACATGCACAATATTTAGGTAT [TGCATGCA_site49] | 8.39 ± 0.49 |
| AAAAAAAAGAAAAACACACACATATATATATAGAAT [CACACA_site1006] | 7.67 ± 0.71 |
| AAAATATTTATTACTTCACACATTATTGTATTTATA [CACACA_site5082] | 7.84 ± 0.61 |
| CATATATTATTATATGCACACATGAAAATATACAAA [CACACA_site2795] | 9.63 ± 0.33 |
| TTGAAATATACGTAAGTAAATTTCATTTGGTTGTGT [XGTACX_negctrl_site600] | 7.5 ± 0.61 |

| Sequence | gcPBM binding intensity (ln) |
| --- | --- |
| TTTCTTTTTTTATAATCCACATTGGGAAAATCAAAA [TGCATGCA_negctrl_site159] | 7.92 ± 0.39 |
| ACGTATAATATGTACACACACATATATACAAAAAAA [CACACA_site917] | 8.225 ± 0.064 |
| GTATAACTTTTGCGCGTACACACATTTATCCTCTTT [CACACA_site208] | 8.78 ± 0.49 |
| AAAGTTGTTACGAACATACACACGAACATACTCACG [CACACA_site604] | 7.65 ± 0.58 |
| TAGAATATCCCCTACACACCCAAATAATTTACAAAT [CACACA_site4825] | 8.15 ± 0.68 |
| AAGATATTTGAATATACACACGATTTAAATTTAATA [CACACA_site3866] | 7.62 ± 0.54 |
| ATACGTGGGCAAAAAGTGCATATAATCAAAAAAAAA [GTGCAC_site9961] | 10.4 ± 0.11 |
| ATATATATATTTGTATGTACATATCATATTGTGTGT [XGTACX_site1580] | 8.825 ± 0.021 |
| TTCTTTCTGTTTTATTTATAATAATTTATGATAAAA [CACACA_negctrl_site766] | 8.06 ± 0.44 |
| TGTTTTTAATTTCGCACACACCTTGTGGAAAAAAAA [CACACA_site4482] | 8.72 ± 0.26 |
| ACACATACATATACATACACATTGTTTTCATGCATC [XGTACX_negctrl_site126] | 8.06 ± 0.78 |
| TATATGTGTCTACAGGTGCATATATCATATATTGCT | 9.89 |
| TAAATAAATTTATACACACACACACGGATATAAATA [CACACA_site6532] | 7.86 ± 0.64 |
| TATAAATATTTATACACACACATATATTTATATATC [CACACA_site6366] | 7.83 ± 0.41 |
| TATGTATTTTTATGCACACATGCGTGGCTTATATAA [CACACA_site387] | 10.9 ± 0.13 |
| ATATTTTCTTTAAATTGTACATATTGTGATACAAAA [XGTACX_site5886] | 7.86 ± 0.42 |
| TATATACATACATGTAGTACCTAATTCGGTCCCGTA [XGTACX_site2702] | 7.66 ± 0.61 |
| TTTCATTTAGCTTTTACACACTATATATTATTGATT [CACACA_site16] | 7.91 ± 0.49 |
| ATTTTTTTTTTTTTTTTTTTTTTGTTTATACAAAAT [CACACA_negctrl_site1241] | 7.59 ± 0.46 |
| GTTTGGTGGTGTTTTGGTACGTACGGGGGGGTATGT [XGTACX_site1983] | 10.7 ± 0.37 |
| TTTTTTTTTTTTTATTGTACTTATTTTTTTATGTTT [XGTACX_site7725] | 8.22 ± 0.64 |
| AAATATAAAGGATTAATATTATATATATATATATAT [XGTACX_negctrl_site211] | 9.12 ± 0.4 |
